Measured values as given in article PMC10668032.
Some of the results follow. At the low end of the ranking the order means little.

biological target: SIX1-Q177R homeodomain (UniProt Q15475); assay: universal protein binding microarray; conditions: Universal all-10-mer PBM (8x60K, AMADID 030236), 300 nM GST-tagged protein, Alexa Fluor 488 anti-GST; buffer, salt, pH and temperature not stated; high values mean tight binding; most listed sequences are background and not binding sites; double strand, one strand shown

| Sequence | binding signal |
| --- | --- |
| GCCATAGC | 0.0455 E-score |
| CTTGTGTA | 0.154 E-score |
| AAACAGTA | -0.115 E-score |
| AGTATTGA | -0.0693 E-score |
| AATTAGAA | -0.284 E-score |
| AACGACTT | -0.262 E-score |
| AGGCAGGG | -0.0227 E-score |
| AGGGTGTC | 0.488 E-score |
| CCTTAATA | 0.0625 E-score |
| ACTTACAA | -0.0698 E-score |
| AACCTACG | -0.271 E-score |
| GTTAAGCA | 0.0527 E-score |
| ACCGTGAC | 0.0905 E-score |
| AACGGCCA | -0.238 E-score |
| CGTAGTGA | 0.0773 E-score |
| ATACTTAC | 0.097 E-score |
| TCAAGTCA | -0.25 E-score |
| AATGCGAC | -0.00036 E-score |
| CTCGGACA | 0.171 E-score |
| ATGATGCA | -0.183 E-score |
| CATACATA | -0.247 E-score |
| ACTGATCC | 0.16 E-score |
| ATTGTCAC | 0.0274 E-score |
| CTTGGTGA | 0.0611 E-score |
| AAATTCAG | -0.179 E-score |

| Sequence | binding signal |
| --- | --- |
| CGTCTGAA | -0.133 E-score |
| GGACGCAA | -0.104 E-score |
| AAGTGCTC | 0.0929 E-score |
| GCTTGGAA | -0.196 E-score |
| AATTGGAA | -0.0206 E-score |
| CAATCGCC | -0.0462 E-score |
| GCTACCGA | -0.22 E-score |
| CTCGCGGC | 0.00649 E-score |
| AATCGCGT | 0.0255 E-score |
| CGCGACTA | 0.0701 E-score |
| GGCGGCGA | -0.00477 E-score |
| TGGCCTAA | -0.256 E-score |
| ACATGATC | 0.0566 E-score |
| ATACCTCC | 0.231 E-score |
| GACGCTGA | -0.0673 E-score |
| CTCAAAAG | 0.0248 E-score |
| AAGATCAA | -0.129 E-score |
| ATCCTCAA | -0.155 E-score |
| TAAGGTCA | -0.162 E-score |
| AGTTGCTG | -0.222 E-score |
| CTGCGATA | 0.0553 E-score |
| ACGGCTTG | -0.138 E-score |
| GCTCGGTA | -0.118 E-score |
| AATCTGGT | 0.159 E-score |
| ATCTGCAT | -0.124 E-score |

| Sequence | binding signal |
| --- | --- |
| AGGATGCC | -0.0952 E-score |
| CCCTTCGA | -0.0186 E-score |
| ACGCCTAG | 0.0683 E-score |
| CATGGCCA | -0.175 E-score |
| CTTGAGTC | -0.211 E-score |
| CATTGCAA | -0.135 E-score |
| CAGCCTAG | -0.0898 E-score |
| ATGGTATA | 0.0711 E-score |
| ACCTATAA | 0.177 E-score |
| CTGGAAAC | 0.178 E-score |
| CCTGGGGA | -0.119 E-score |
| CAGATTAG | -0.0223 E-score |
| CGGACCTC | -0.0342 E-score |
| CGGTTACC | 0.0351 E-score |
| AAAATATA | -0.00472 E-score |
| CACAAGGC | -0.0207 E-score |
| GTTCCTCA | -0.0768 E-score |
| CGAATTAC | 0.00159 E-score |
| GCTTACTA | -0.201 E-score |
| CTTGTCGC | -0.236 E-score |
| GTCATTGA | 0.0213 E-score |
| ACCAAAGA | -0.0672 E-score |
| CACTTATG | 0.161 E-score |
| CAGGATCG | -0.012 E-score |
| AAATGGAG | 0.0508 E-score |

| Sequence | binding signal |
| --- | --- |
| CCCATCCA | 0.0199 E-score |
| ATCCTAAG | -0.268 E-score |
| AAAGACAG | 0.0883 E-score |
| ATGGTCGA | -0.0208 E-score |
| AGACGTTC | -0.329 E-score |
| GGCCATGA | 0.0132 E-score |
| AGCTCCTC | -0.108 E-score |
| CCTTCTTC | -0.1 E-score |
| AAGTCTAG | -0.241 E-score |
| AAGTAGTC | -0.103 E-score |
| AAATCACC | -0.103 E-score |
| CTTCCCGA | 0.0921 E-score |
| GTTCTGCA | 0.0204 E-score |
| CCGATACG | 0.0455 E-score |
| AGAAAGTC | -0.265 E-score |
| CCGAATTC | -0.101 E-score |
| CCGTGCAG | 0.111 E-score |
| ACAAACGG | -0.09 E-score |
| TCCGAAAA | -0.049 E-score |
| ATAGTGGA | 0.05 E-score |
| ACGGTAAG | 0.0149 E-score |
| ATCGGAAG | -0.112 E-score |
| TATGATGA | -0.136 E-score |
| GTTTTAGA | -0.187 E-score |
| CTTCTTCC | -0.171 E-score |

| Sequence | binding signal |
| --- | --- |
| CACCGAGG | 0.247 E-score |
| CACGCGTC | 0.262 E-score |
| ACAAAGCA | -0.125 E-score |
| CCTGATAA | -0.156 E-score |
| CCTATTCC | -0.245 E-score |
| CAGATCAC | -0.00859 E-score |
| CCACGCCC | 0.106 E-score |
| CCCCTTTA | 0.0582 E-score |
| AAGTCTAA | -0.0559 E-score |
| ATCTGGAA | -0.0977 E-score |
| AAGTGGGT | 0.0961 E-score |
| ATGGATGC | -0.156 E-score |
| GGCAGCCC | -0.0126 E-score |
| CTCTAGAC | 0.0385 E-score |
| AGAGTCCT | -0.0889 E-score |
| GATCATCC | 0.121 E-score |
| GGCCCCAC | -0.181 E-score |
| AGGAAACT | -0.271 E-score |
| TATGGTCA | -0.119 E-score |
| GCTAGTAC | -0.00805 E-score |
| TAGTGTAA | 0.408 E-score |
| CCATACTC | 0.0477 E-score |
| GGTTGACA | 0.137 E-score |
| ACGATGCT | 0.0406 E-score |
| CCATGGCA | 0.00479 E-score |

| Sequence | binding signal |
| --- | --- |
| CTATTCTC | -0.0853 E-score |
| CAGGAGGG | -0.0044 E-score |
| GAGCTACA | 0.0255 E-score |
| GTTTGCGA | 0.066 E-score |
| AGCTTTCG | -0.271 E-score |
| TAGGAGAA | -0.0203 E-score |
| CCTAGCCC | 0.0152 E-score |
| CGAATTCA | -0.157 E-score |
| CCTGGAGC | -0.0512 E-score |
| AGCCACCA | -0.154 E-score |
| ATCACTTG | 0.0272 E-score |
| CCCACCTA | 0.128 E-score |
| TGTAGTAA | 0.101 E-score |
| ACTTCTTA | 0.183 E-score |
| CAATAGAG | -0.153 E-score |
| AGGGTTTA | 0.117 E-score |
| ACCCGGGA | 0.192 E-score |
| ATGATTAG | -0.163 E-score |
| ACAAATGC | -0.164 E-score |
| CGAACGAC | -0.0347 E-score |
| CTTTCTGC | -0.135 E-score |
| AATTGCCG | -0.256 E-score |
| CCGTTACA | 0.0479 E-score |
| CACGTCGG | 0.116 E-score |
| AATCAACA | 0.111 E-score |

| Sequence | binding signal |
| --- | --- |
| GGTTACGA | 0.0649 E-score |
| AACGCGAC | 0.0364 E-score |
| GAAGTTTA | -0.211 E-score |
| TACTTTAA | -0.0886 E-score |
| GCACATAC | -0.0779 E-score |
| CAATGCAG | -0.0994 E-score |
| AATCCCGT | 0.0379 E-score |
| AGCCGTCA | -0.203 E-score |
| CCCCGAAG | 0.0692 E-score |
| ACCCGGCC | 0.117 E-score |
| ACGATTAA | 0.0366 E-score |
| CCCCCGCA | 0.218 E-score |
| GTAAAGAC | -0.0577 E-score |
| AGGACACG | 0.349 E-score |
| AACTCTGC | -0.154 E-score |
| GCGTGCCA | -0.177 E-score |
| GGTGTTAA | 0.475 E-score |
| AGAGTGTA | 0.424 E-score |
| ATGATGCG | -0.196 E-score |
| CCCTGGAA | 0.0711 E-score |
| CGGGCGGA | 0.00552 E-score |
| TACGAACA | 0.191 E-score |
